The record followed here is patent US7354734B2, “Fungal proteins and nucleic acids encoding same” (priority 2003, dated 2008).

The assay deals with desMet-G-CSF. Nature of the assay: Digestion of desMet-G-CSF with DPPIV. The settings on record: overnight 37° C., E/S 1/20 (w:w). On the procedure: The freeze-dried material was suspended at a 1 mg/ml concentration in 50 mM Tris-HCl, pH 7.5 containing 0.1% Sarcosyl and incubated overnight at 37° C. with DPPIV at an E/S ratio of 1/20 (w:w). The protein was isolated by RP-HPLC as before and characterized by ESI-MS (FIGS. 13A and B).

“ruDPPIV: T. rubrum dipeptidylpeptidase IV (SEQ ID NO: 35)”: the “cleavage of N-terminal dipeptide of desMet-G-CSF” value is recorded as “cleavage of the N-terminal dipeptide Thr-Pro”.
